# According to PubChem BioAssay AID1745853 (National Center for Advancing Translational Sciences (NCATS), 2022):
# This is one part of the list. Further columns of the screen follow, without active or inactive calls.
# Key:
# Test in all cases: Primary Screen for Target Class Profiling of Small Molecule Inhibitors of Methyltransferases
# [1] = target: Glycine N-methyltransferase (Homo sapiens) (UniProt Q14749); settings: purified enzyme, MTase-Glo SAH luminescence; measured here: GNMT inhibition; at 40 µM; stronger effect = lower value
# Source text: (§1) PI: Matthew D. Hall Ph.D. and Quinlin M. Hanson Ph.D.
# (§2) National Center for Advancing Translational Sciences (NCATS)
# (§3) National Institute of Health (NIH), Rockville, MD
# (§4) Target class profiling (TCP) is a chemical biology approach amenable to investigating understudied biological targets. TCP is achieved by developing a generalizable assay platform and applying it to screen a curated set of compound libraries against representative members of a target class. Small molecule methyltransferases (SMMTase) are a subclass of methyltransferase that act on metabolites to modulate signaling pathways, metabolize xenobiotics, or balance the available methyl pool. We screened four curated libraries totaling 27,574 unique compounds against the SMMTases nicotinamide N-methyltransferase (NNMT), phenylethanolamine N-methyltransferase (PNMT), histamine N-methyltransferase (HNMT), glycine N-methyltransferase (GNMT), catechol O-methyltransferase (COMT), and guanidinoacetate N-methyltransferase (GAMT). The data generated by this TCP can be leveraged for informed tool molecule development. For example, in the associated publication we identified a chemotype of HNMT-selective inhibitors. Additionally, we identified a putative SMMTase-selective inhibitor with potential as a tool molecule for studying broader methyltransferase biology.
# (§5) High-through put screening assays were developed at the National Center for Advancing Translational Science (NCATS) for the enzymes NNMT, PNMT, HNMT, GNMT, COMT, and GAMT. Enzymatic activity was measured as a function of SAM cofactor conversion using the MTase Glo kit (Promega) for all enzymes. All assays were performed in 1536-well format with substrates and SAM concentrations at KM values. Enzyme concentration and assay timing were optimized for 10-20% SAM conversion. Initial screening of 27,574 compounds was done as single-point assays using the highest compound concentration (40 uM). […] These compounds were replated in 11-point dose response and assayed against NNMT, PNMT, HNMT, GNMT, COMT, GAMT, and a counter-assay. The IC50 and efficacy (maximal response) values were determined for each dose-response curve. These values are also accounted for in the area under the curve (AUC) values.
# (§6) PROTOCOL TABLE (as described by Inglese J, Shamu CE and Guy RK. 2007)
# (§7) SEQUENCE No. (e.g., 1, 2, 3, etc.); […] (e.g., Cells, Incubation, Reagent, etc.); VALUE; DESCRIPTION.
# (§8) 1; Reagent; 2 uL; SMMTase Enzyme (2x) in reaction buffer, columns 1- 48.
# (§9) 2; Reagent; 1 uL; SAM (4x) in reaction buffer, columns 1-48.
# (§10) 3; Controls; 23 nL; DMSO in column 4; sinefungin in DMSO (0 uM - 40 uM) in 7-point 1:2 dilution series (n = 2) in column 2.
# (§11) 4; Compounds; 23 nL; Columns 5-48.
# (§12) 5; Reagent; 1 uL; Substrate (4x) in reaction buffer, columns 2-48.
# (§13) 6; Time; 20-30 min; Incubation.
# (§14) 7; Reagent; 1 uL; MTase-Glo reagent (5X), columns 1-48.
# (§15) 8; Time; 30 min; Incubation.
# (§16) 9; Reagent; 5 uL; MTase-Glo Detection reagent, columns 1-48.
# (§17) 10; Time; 30 min; Incubation, luminescence evolution.
# (§18) 11; Detection; Luminescence; ViewLux uHTS Microplate Imager (PerkinElmer).
# (§19) NOTES (numbers refer to Sequence numbers above)
# (§20) 1, 2, 5. White Medium Binding Greiner 1536-well plates (Cat #789175-F, Greiner Bio-One, Monroe, NC); Reaction buffer: 50 mM Tris, pH 8.0, 3 mM MgCl2, 1 mM EDTA, 50 mM NaCl, 1 mM DTT, and 0.1 mg/mL BSA. Evaporation was prevented by covering assay plates with metal lids containing holes to allow gas diffusion.
# (§21) 1. Six SMMTase were profiled: HNMT, GNMT, PNMT, COMT, NNMT, GAMT
# (§22) 5. The corresponding substrate was used for each enzyme: HNMT - 5.3 uM Histamine; GNMT - >500 uM Glycine; PNMT - 16.2 uM Norephinephrine; COMT - 13.7 uM Norephinephrine; NNMT - 3.8 uM Nicotinamide; GAMT - 2.5 uM Guanidinoacetate.6, 8, 10. Room temperature
# (§23) 6. Final reaction conditions: 10 nM COMT, 5 uM SAM, 15 uM norepinephrine, 50 mM Tris, pH 8.0, 3 mM MgCl2, 1 mM EDTA, 50 mM NaCl, 1 mM DTT, and 0.1 mg/mL BSA; refer to tables 2 and S1 for specific timing.
# 8. […]
# [2] = target: Guanidinoacetate N-methyltransferase (Homo sapiens) (UniProt Q14353); settings: purified enzyme, MTase-Glo SAH luminescence; measured here: GAMT inhibition; at 40 µM; stronger effect = lower value
# Source text: as §1, §2, §3, §4, §5, §6, §7, §8, §9, §10, §11, §12, §13, §14, §15, §16, §17, §18, §19, §20, §21, §22, §23
# 8. […]
# [3] = target: Histamine N-methyltransferase (Homo sapiens) (UniProt P50135); settings: purified enzyme, MTase-Glo SAH luminescence; measured here: HNMT inhibition; at 40 µM; stronger effect = lower value
# Source text: as §1, §2, §3, §4, §5, §6, §7, §8, §9, §10, §11, §12, §13, §14, §15, §16, §17, §18, §19, §20, §21, §22, §23
# 8. […]
# [4] = target: Nicotinamide N-methyltransferase (Homo sapiens) (UniProt P40261); settings: purified enzyme, MTase-Glo SAH luminescence; measured here: NNMT inhibition; at 40 µM; stronger effect = lower value
# Source text: as §1, §2, §3, §4, §5, §6, §7, §8, §9, §10, §11, §12, §13, §14, §15, §16, §17, §18, §19, §20, §21, §22, §23
# 8. […]
# [5] = target: Phenylethanolamine N-methyltransferase (Homo sapiens) (UniProt P11086); settings: purified enzyme, MTase-Glo SAH luminescence; measured here: PNMT inhibition; at 40 µM; stronger effect = lower value
# Source text: as §1, §2, §3, §4, §5, §6, §7, §8, §9, §10, §11, §12, §13, §14, §15, §16, §17, §18, §19, §20, §21, §22, §23
# 8. […]
# On the % scale 0 is the no-effect control and ±100 the full control effect.
Compound,"activity change, negative = inhibition [1] [%]","activity change, negative = inhibition [2] [%]","activity change, negative = inhibition [3] [%]","activity change, negative = inhibition [4] [%]","activity change, negative = inhibition [5] [%]"
O=C(CCCCN1CCOCC1)Nc1ccc(-c2cccnc2)cc1,-1.31,-3.2,-22.8,-19.5,-1.11
CC(=O)O[C@H]1[C@H](O)C[C@@]2(C)C(CC[C@]3(C)C2CC=C2C4CC(C)(C)CC[C@]4(C(=O)O)CC[C@]23C)C1(C)C (stereo not given in full),-7.51,-14,-2.03,-22.2,-14.9
COc1cccc(CN2C(=O)c3cc4oc(C)cc4n3CC2(C)C(=O)NC2CCCCC2)c1OC (stereo not given),4.78,4.52,6.22,5.15,1.51
CN1C(=O)CO[C@H]2CN(c3ccc(C#N)cn3)C[C@H]21,-2.65,-3.81,-2.52,-8.62,-4.32
COc1ccc(C(=O)N2C[C@@H]3C[C@H](C2)c2ccc(NS(=O)(=O)c4ccc(OC)cc4)c(=O)n2C3)cc1,-2.58,-4.45,-0.79,-11,-3.43
O=C1CC2(CCN([S+](=O)([O-])c3cccc(C(F)(F)F)c3)CC2)Oc2ccccc21,-2.7,-1.41,1.39,-7.57,-0.235
CC(/C=C/C1=CC2=CC(=O)C(C)(O)C(O)C2=CO1)=C\C(C)CCO (stereo not given),-1.12,-2.17,6.52,-14.4,-5.48
CCC1CC2C(C)=CC3CCCCC3C2(C)C2(OC(=O)C(C)(O)OC2=O)O1 (stereo not given),3.42,5.09,9.14,-7.86,1.66
Cc1ccc(NC(=O)Cn2nc3n(Cc4ccc(F)cc4)c(=O)c4ccccc4n3c2=O)c(C)c1,-2.51,-0.782,0.727,-1.84,-1.88
CN1C(=O)c2cc(C(=O)NCc3cccs3)nn2CC1(C)C(=O)NC1CCCC1 (stereo not given),1.05,-0.09,-1.08,-2.58,-3.48
Cc1ccc(NC(=O)O[C@@H]2CC[C@]3(C)C(CC[C@@H](O)[C@H]3CC(=O)NCc3ccccc3)[C@]2(C)CO)cc1 (stereo not given in full),-1.82,-7.85,-0.748,-7.12,-5.85
Cc1onc(-c2ccccc2)c1C(=O)N1CCN(c2ccc([N+](=O)[O-])cc2Cl)CC1,3.73,-2.55,10.7,-22.1,-9.79
CC1(C(=O)NCc2ccc(Cl)cc2)Cn2c(nc3ccccc32)C(=O)N1C1CC1 (stereo not given),-8.46,1.26,-0.131,0.519,-1.69
CN(Cc1cccnc1)Cc1ccccc1C(F)(F)F,-1.85,-4.46,-0.955,-5.8,-11.1
CCCN1C(=O)c2cc(C(=O)NCc3ccc(OCC)c(OC)c3)nn2CC1(C)C(=O)NC1CCCC1 (stereo not given),2.63,0,5.73,5.91,3.8
CC1CCCCN1CCNC(=O)Cn1ccc2cc(S(=O)(=O)N3CCCCC3)ccc21 (stereo not given),-1.47,-0.314,-33.2,-1.57,-4.03
COc1ccc(C(=O)Nc2ccc3c(c2)C(=O)N(C)C2=NCCN23)cc1,-1.44,0,4.86,-0.582,2.7
COCCn1ccc2c(C3=CCOCC3)nc(-c3cccc4[nH]ccc34)cc21,-68.1,-52.1,-27.4,-38.9,-86.5
CN1CC(=O)N(CC(=O)N[C@@H]2COCC[C@@H]2OCc2cscn2)C1=O,-4.38,-8.84,-3.06,-6.76,-6.52
CC(C)=CC1C[C@](C)(O)[C@@H]2[C@H]3CCC4[C@@]5(C)CC[C@H](O[C@@H]6OC[C@H](O)[C@H](O[C@@H]7O[C@H](CO[C@@H]8O[C@H](CO)[C@@H](O)[C@H](O)[C@H]8O)[C@@H](O)[C@H](O)[C@H]7O)[C@H]6O[C@@H]6O[C@@H](C)[C@H](O)[C@@H](O)[C@H]6O)C(C)(C)[C@@H]5CC[C@@]4(C)[C@@]34CO[C@@]2(C4)O1 (stereo not given in full),-0.09,1.85,7.57,-5.98,8.82
CC(C)=CC(=O)N[C@H]1C[C@@H](C(=O)N[C@H](Cc2ccccc2)C(N)=O)N(C(=O)C=C(C)C)C1,-3.39,-8.02,-2.62,-10.2,-3.46
O=C(O)c1ccc(C2Nc3c(F)cc(F)cc3C3C=CCC32)cc1 (stereo not given),-12.9,0.782,3.69,-2.51,-6.08
O=[S+]1([O-])NC2(CCCN(Cc3ccsc3)C2)CNc2ccccc21 (stereo not given),-39.1,-6.97,-3.39,-12.6,-9.76
COc1ccc(OC)c(S(=O)(=O)N2CC[C@@H]3COCCN(Cc4ccccc4)[C@@H]3C2)c1,-16.4,-4.79,-11.1,-11.5,-11.4
Cc1cc2c(cc3n2CC(C)(C(=O)NC2CCCCCC2)N(CCN2CCOCC2)C3=O)o1 (stereo not given),3.78,0,10.6,-4.91,4.05
Fc1ccc(CNc2nc3c(-c4ccc(F)cc4)nnn3c3ccccc23)cc1,-0.95,-0.462,0.521,-4.2,-1.76
COc1cccc(CCC(=O)N2CC(F)(F)C[C@H]2c2nc(C)no2)c1,-1.23,-0.156,1.55,-1.25,2.51
CC1(C(=O)NC2CCCCC2)Cn2nc(C3CC3)cc2C(=O)N1Cc1ccccc1Cl (stereo not given),-4.05,2.55,2.04,-5.28,-0.804
